# In PubChem BioAssay (Tox21):
# The shares of active, inactive and inconclusive entries below differ from those in the screen. No potency is given beside an inconclusive call; the fits are too rough. Calls of active or inactive are those of the source. Unless noted, calls follow the shape of the dose curve; as a rule, active = well fitted curve in the direction sought with a large enough effect in the repeat runs; inconclusive = weak or mixed curves; inactive = no such curve, though single readings can be large; an effect the other way counts as inactive or inconclusive.
# Assays:
# [1] = qHTS assay to identify small molecule antagonists of the retinoid-related orphan receptor gamma (ROR-gamma) signaling pathway - cell viability counter screen (AID 1159520); conditions: Tet-on RORgamma CHO cells viability, ATP luminescence, 16 h; series mostly up to 92.4 µM; also: nearly all actives have a fitted effect of over 50% in size
# Procedure, shortened: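 Tet-on ROR gamma CHO cells (1,000/well) were plated 4 hr, given compounds in DMSO for 2 hr at 37 C, then induced with 1 uM final doxycycline for 16 hr. Viability was read as ATP by CellTiter-Glo luminescence after 30 min.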
# [2] = target: Nuclear receptor ROR-gamma (Homo sapiens) (UniProt P51449); experiment: qHTS assay to identify small molecule antagonists of the retinoid-related orphan receptor gamma (ROR-gamma) signaling pathway (AID 1159521; also: nearly all actives have a fitted effect of over 50% in size); conditions: Tet-on RORgamma CHO cells, RORE-luciferase, 16 h; series mostly up to 92.4 µM
# Procedure, shortened: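 Inducible-expression reporter assay: doxycycline (1 uM final) switched on RORγ in CHO cells bearing a ROR response element-luciferase construct, with test compounds present from 2 h beforehand. Decreased luminescence after 16 h defined antagonist activity.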
# [3] = target: Retinoic acid receptor RXR-alpha (Homo sapiens) (UniProt P19793); experiment: qHTS assay to identify small molecule agonists of the RXR signaling pathway (AID 1159527; calls by dose curve; also: nearly all actives have a fitted effect of over 35% in size; as to activation: % is scaled to controls: 0 for no effect and ±100 for the full control effect); conditions: HEK293T RXRa-UAS-bla, beta-lactamase ratio, 16 h; activation: at 76.8 µM (top of the series) unless noted
# Chain of UniProt P19793 (P19793 whole entry, looked up): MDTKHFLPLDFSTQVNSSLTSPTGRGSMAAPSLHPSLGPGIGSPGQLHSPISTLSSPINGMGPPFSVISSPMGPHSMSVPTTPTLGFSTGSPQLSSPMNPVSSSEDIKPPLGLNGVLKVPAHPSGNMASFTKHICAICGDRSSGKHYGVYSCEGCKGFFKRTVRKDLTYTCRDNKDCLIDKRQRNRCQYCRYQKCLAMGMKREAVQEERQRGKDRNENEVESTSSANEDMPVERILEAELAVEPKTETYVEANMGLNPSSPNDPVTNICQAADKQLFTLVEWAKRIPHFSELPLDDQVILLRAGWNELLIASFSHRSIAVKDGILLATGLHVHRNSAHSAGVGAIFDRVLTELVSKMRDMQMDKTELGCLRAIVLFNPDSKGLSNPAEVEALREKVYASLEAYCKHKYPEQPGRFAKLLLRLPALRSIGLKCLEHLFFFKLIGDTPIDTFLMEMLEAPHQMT
# Procedure, shortened: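 Compounds in DMSO were added to RXR-alpha-UAS-bla HEK 293T cells kept in 2% charcoal-stripped serum, and incubated 16 hr at 37 C with 5% CO2. Reporter signal came from a 2 hr B/G FRET substrate step.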
# [4] = qHTS assay to identify small molecule agonists of the RXR signaling pathway - cell viability counter screen (AID 1159529); conditions: RXR-alpha-bla HEK293T viability, CellTiter-Glo, 16 h; series mostly up to 76.8 µM; also: nearly all actives have a fitted effect of over 50% in size
# Procedure, shortened: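 Counter screen: CellTiter-Glo luminescence. Cells: RXR-alpha-UAS-bla HEK 293T. Medium: 2% charcoal-stripped FBS. Treatment: 16 h, 37 C. Reagent incubation: 30 min, RT.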
# [5] = qHTS assay to identify small molecule agonists of the AP-1 signaling pathway (AID 1159526; calls by dose curve; as to activation: % is scaled to controls: 0 for no effect and ±100 for the full control effect); conditions: ME-180 AP-1-bla reporter, beta-lactamase FRET ratio, 5 h; activation: at 76.8 µM (top of the series) unless noted
# [6] = qHTS assay to identify small molecule antagonists of the retinoic acid receptor (RAR) signaling pathway (AID 1159552; also: nearly all actives have a fitted effect of over 50% in size); conditions: C3RL4 RARE luciferase reporter, retinol-stimulated, 6 h; series mostly up to 92.4 µM
# Procedure, shortened: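 Antagonism of retinol-induced RARE reporter activity was measured in C3RL4 cells. Exposure to compounds and 1 uM final retinol lasted 6 hr at 37 C, with luminescence as endpoint.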
# [7] = qHTS assay to identify small molecule agonists of the retinoic acid receptor (RAR) signaling pathway (AID 1159553); conditions: C3RL4 RARE luciferase reporter, agonist, 6 h; activation: at 73.3 µM (top of the series) unless noted
# Procedure, shortened: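 Compounds dissolved in DMSO were pinned onto C3RL4 cells seeded the previous day, and plates were held 6 hr at 37 C. RARE-driven luciferase output was then read by luminescence.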
# [8] = qHTS assay to identify small molecule agonists of the AP-1 signaling pathway - cell viability counter screen (AID 1159525; calls by dose curve; also: nearly all actives have a fitted effect of over 55% in size); conditions: ME-180 (cervical carcinoma) AP-1-bla cells viability, ATP luminescence, 5 h; series mostly up to 76.8 µM
# Procedure, shortened: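 Each titration point was normalised to DMSO and tetra n-octyl ammonium bromide controls. The read was Cell Titer Glo luminescence after 30 min at RT, following 5 h compound exposure of ME-180 AP-1-bla cells at 37 °C.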
# [9] = qHTS assay to identify small molecule antagonists of the retinoid acid receptor (RAR) signaling pathway - cell viability counter screen (AID 1159551); conditions: C3RL4 cells viability, ATP luminescence (CellTiter-Glo), 6 h; series mostly up to 92.4 µM; also: nearly all actives have a fitted effect of over 35% in size
# Procedure, shortened: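 Viability of C3RL4 cells is quantified from ATP by luminescence after 6 h treatment at 37 C with compounds and 1 uM retinol.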
# Potency is read from the fitted curve at half-maximal effect; tags tell the direction and shape of the fitted curve or compound fluorescence and quenching.
smiles,measurement,setting,value
BrC(Br)C(Br)(Br)Br,Potency,[1],"inconclusive [cytotoxic, partial curve]"
same,Potency,[2],"inconclusive [inhibitor, partial curve, poor fit]"
same,Potency,[3],"inconclusive [rising, partial curve]"
same,Potency,[4],"inconclusive [cytotoxic, partial curve, poor fit]"
N#CCC#N,Potency,[1],"inconclusive [cytotoxic, single point]"
same,Potency,[2],active: 27.3 µM
same,Potency,[5],"inconclusive [falling, single point]"
same,Potency,[3],"inconclusive [activator, partial curve]"
same,Potency,[6],inconclusive [inhibitor]
same,Potency,[7],"inconclusive [activator, single point]"
II,Potency,[1],active: 30.6 µM
same,Potency,[2],"inconclusive [inhibitor, full curve, poor fit]"
same,Potency,[8],"inconclusive [cytotoxic, full curve, poor fit]"
same,Potency,[5],inconclusive
same,Potency,[3],"inconclusive [rising, full curve]"
same,Potency,[9],"inconclusive [cytotoxic, partial curve, poor fit]"
C[C@]12CC[C@H]3[C@@H](CCC4=CC(=O)CC[C@@]43C)[C@@H]1CC[C@@H]2O,Potency,[1],inactive
same,Potency,[2],"inconclusive [inhibitor, full curve, poor fit]"
same,activation,[5],inconclusive: 15%
same,activation,[3],inconclusive: -26.7%
NC(=O)CI,Potency,[1],inconclusive [cytotoxic]
same,Potency,[2],"inconclusive [inhibitor, partial curve, poor fit]"
same,activation,[5],inconclusive: 15.8%
same,Potency,[3],"inconclusive [rising, partial curve]"
same,Potency,[4],"inconclusive [cytotoxic, partial curve, poor fit]"
same,Potency,[6],"inconclusive [inhibitor, partial curve, poor fit]"
